From the supplement of paper PMC4604168 (melanoma cell lines) come the findings set out here.

Some test systems named below: A101D; A2058; A375.
Common to all, as to test: cell count relative to DMSO control; melanoma cells; higher = more viable cells
Common to all, as to settings: library dose: standard library concentration; 72 h

The list shows a part of the results. Most values come without repeats; read them as rough.
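Further: cells treated in 1,536-well plates, then fixed and DAPI-stained, with nuclei counted from automated high-throughput microscope images.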

For the compound `CC[C@]1(O)C[C@H]2CN(CCc3c([nH]c4ccccc34)[C@@](C(=O)OC)(c3cc4c(cc3OC)N(C=O)[C@H]3[C@@](O)(C(=O)OC)[C@H](OC(C)=O)[C@]5(CC)C=CCN6CC[C@]43[C@@H]65)C2)C1` [vincristine] + COc1cc(Nc2ncc(F)c(Nc3ccc4c(n3)NC(=O)C(C)(C)O4)n2)cc(OC)c1OC [Tamatinib] (first compound 0.0005 µM, partner dose 2 µM), the values for the cell count with A101D, in the test on A2058 and with A375 were 16.7%, 5.59% and 86.2%, respectively.
For `N#CC[C@H](C1CCCC1)n1cc(-c2ncnc3[nH]ccc23)cn1` [ruxolitinib] + CCN(CC)CCNC(=O)c1c(C)[nH]c(/C=C2\C(=O)Nc3ccc(F)cc32)c1C [sunitinib] (first compound 5 µM, partner dose 2 µM) the same measures were 62.2%, 57.2% and 87%.
For `CC[C@]1(O)C[C@H]2CN(CCc3c([nH]c4ccccc34)[C@@](C(=O)OC)(c3cc4c(cc3OC)N(C=O)[C@H]3[C@@](O)(C(=O)OC)[C@H](OC(C)=O)[C@]5(CC)C=CCN6CC[C@]43[C@@H]65)C2)C1` [vincristine] + Cn1nnc2c(C(N)=O)ncn2c1=O [temozolomide] (first compound 0.0005 µM, partner dose 10 µM) the same measures were 63.4%, 50% and 87.7%.
For `CC[C@]1(O)C[C@H]2CN(CCc3c([nH]c4ccccc34)[C@@](C(=O)OC)(c3cc4c(cc3OC)N(C=O)[C@H]3[C@@](O)(C(=O)OC)[C@H](OC(C)=O)[C@]5(CC)C=CCN6CC[C@]43[C@@H]65)C2)C1` [vincristine] + CC(C)C[C@H](NC(=O)[C@H](Cc1ccccc1)NC(=O)c1cnccn1)B(O)O [Bortezomib] (first compound 0.0005 µM, partner dose 0.005 µM) the same measures were 7.87%, 12.1% and 82.1%.
On to `Cc1cc(Nc2cc(N3CCN(C)CC3)nc(Sc3ccc(NC(=O)C4CC4)cc3)n2)n[nH]1` [Tozasertib] + C[C@]1(c2nc3c(C(N)=O)cccc3[nH]2)CCCN1 [Veliparib] (first compound 0.03 µM, partner dose 7 µM), for which the cell count with A101D is 69.9%; in the test with A2058, 66%; in the test on A375, 89.3%.
For `Cc1cc(Nc2cc(N3CCN(C)CC3)nc(Sc3ccc(NC(=O)C4CC4)cc3)n2)n[nH]1` [Tozasertib] + Cc1ccc(Nc2nccc(N(C)c3ccc4c(C)n(C)nc4c3)n2)cc1S(N)(=O)=O [Pazopanib] (first compound 0.03 µM, partner dose 2 µM) the same measures were 77%, 78.5% and 89%.
With `Cc1cc(Nc2cc(N3CCN(C)CC3)nc(Sc3ccc(NC(=O)C4CC4)cc3)n2)n[nH]1` [Tozasertib] + C[C@@H](Oc1cc(-c2cnn(C3CCNCC3)c2)cnc1N)c1c(Cl)ccc(F)c1Cl [Crizotinib] (first compound 0.03 µM, partner dose 1 µM), the cell count came out at 93% in the test with A101D, 36.8% with A2058 and 94.6% in the test on A375.
For `N#CC[C@H](C1CCCC1)n1cc(-c2ncnc3[nH]ccc23)cn1` [ruxolitinib] + O=C(O)c1ccc2c(c1)nc(Nc1cccc(Cl)c1)c1ccncc12 [CX4945] (first compound 5 µM, partner dose 2 µM) the same measures were 108%, 74.9% and 96.2%.
For `N#CC[C@H](C1CCCC1)n1cc(-c2ncnc3[nH]ccc23)cn1` [ruxolitinib] + Cc1cc(N2CCOCC2)cc2[nH]c(-c3c(NC[C@@H](O)c4cccc(Cl)c4)cc[nH]c3=O)nc12 [BMS536924] (first compound 5 µM, partner dose 1 µM) the same measures were 109%, 83.2% and 139%.
For `Cc1cc(Nc2cc(N3CCN(C)CC3)nc(Sc3ccc(NC(=O)C4CC4)cc3)n2)n[nH]1` [Tozasertib] + C[C@@H](N)c1ccc(C(=O)Nc2ccnc3[nH]ccc23)cc1 [RKI983] (first compound 0.03 µM, partner dose 2 µM) the same measures were 72.3%, 59.7% and 88.9%.
Turning to `CC[C@]1(O)C[C@H]2CN(CCc3c([nH]c4ccccc34)[C@@](C(=O)OC)(c3cc4c(cc3OC)N(C=O)[C@H]3[C@@](O)(C(=O)OC)[C@H](OC(C)=O)[C@]5(CC)C=CCN6CC[C@]43[C@@H]65)C2)C1` [vincristine] + COc1cc2c(Oc3ccc4[nH]c(C)cc4c3F)ncnc2cc1OCCCN1CCCC1 [cediranib] (first compound 0.0005 µM, partner dose 2 µM), the values for the cell count with A101D, with A2058 and in the test with A375 were 57.8%, 31% and 98.6%, respectively.
